# This is one part of the list. Values were computed here from the reads of four pooled replicates and scatter widely.
# Biological target: T1, Pho4 (S. cerevisiae) (UniProt P07270)
# T1 sequence: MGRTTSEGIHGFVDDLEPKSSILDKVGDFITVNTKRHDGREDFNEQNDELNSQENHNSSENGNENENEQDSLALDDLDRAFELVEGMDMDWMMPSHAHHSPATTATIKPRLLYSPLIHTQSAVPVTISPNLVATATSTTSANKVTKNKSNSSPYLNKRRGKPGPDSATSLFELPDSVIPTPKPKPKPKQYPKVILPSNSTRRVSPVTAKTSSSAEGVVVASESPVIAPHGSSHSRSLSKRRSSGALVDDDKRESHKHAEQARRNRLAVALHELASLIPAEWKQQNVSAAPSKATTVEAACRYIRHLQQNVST
# Experiment: relative binding free energy (BET-seq); higher = weaker binding
# Conditions: reference: library average
row,Sequence,relative binding free energy [kcal/mol]
1,TTGTTCACGTGCTCGG,0.27
2,GGGGCCACGTGCGTTT,-0.12
3,ATATACACGTGTGTCG,-0.04
4,GTGGACACGTGGGTGA,-0.02
5,TTAATCACGTGTTAGA,0.09
6,GGTGACACGTGTATAG,0.11
7,AGTCACACGTGTGTTT,0.13
8,TTGCACACGTGTGGGG,0.16
9,GTTCACACGTGGTTAG,0.12
10,ATATTCACGTGTAGAT,0.23
11,GGGTACACGTGGGAAA,0.1
12,GGGTACACGTGTATGC,0.17
13,GGGGACACGTGGCGGG,-0.11
14,TATGTCACGTGGCGGG,0.1
15,TAGCGCACGTGTGTAT,-0.08
16,TTAGGCACGTGGAGAG,-0.05
17,GGTAGCACGTGTAGAA,0.03
18,ATTGCCACGTGTGAGT,-0.01
19,TTTTGCACGTGCAGTA,-0.12
20,CGTGTCACGTGCGTAA,0.05
21,TTTCGCACGTGATGGA,0
22,TTGTCCACGTGTGCTT,0.19
23,GAGTGCACGTGGTTAT,0

row,Sequence,relative binding free energy [kcal/mol]
1,GATGTCACGTGGGTTC,0.04
2,TTTTCCACGTGTAAGT,0.13
3,GTCAGCACGTGATGGA,0.14
4,ATTGGCACGTGTTTTC,-0.18
5,TTATGCACGTGGGCGA,-0.17
6,TCTTTCACGTGTTTAA,0.32
7,GGTATCACGTGAGTCA,0.4
8,GGCTTCACGTGGGTCT,0.3
9,GGGCGCACGTGAAGTT,0.18
10,TGGGCCACGTGGAAGT,0.02
11,TAGTGCACGTGTATTT,-0.02
12,AATGACACGTGCGTGG,-0.01
13,CGCGGCACGTGGGGCG,-0.18
14,AGGGACACGTGCGTAG,-0.01
15,CATTACACGTGTTGTT,0.09
16,GGGTGCACGTGGTACC,0
17,AAGAGCACGTGGGGAT,-0.18
18,TAGATCACGTGGGGCT,0.01
19,ATGGTCACGTGGGCCT,-0.17
20,GGCCTCACGTGGTGTT,0.15
21,TTTTGCACGTGGTCTA,-0.11
22,GTAGGCACGTGGAAGT,0.05
23,TTGCTCACGTGATGTT,0.28

row,Sequence,relative binding free energy [kcal/mol]
1,CTGTTCACGTGTGTTC,0.17
2,ATTAGCACGTGGTGTG,-0.14
3,TATGACACGTGCATGT,0.02
4,TTAGTCACGTGATTAT,0.27
5,GTGGACACGTGTCGTT,0.06
6,TGGGACACGTGAATGA,0.29
7,AATGTCACGTGATTCT,0.17
8,TGCAGCACGTGAGTGT,0.08
9,CCGTGCACGTGAGGGT,0.12
10,CATTGCACGTGGATTA,0.12
11,ATATTCACGTGTGGAT,0.09
12,GGTAGCACGTGTGCAG,0.1
13,TATGGCACGTGTAAGT,-0.06
14,GTGGGCACGTGTAAGA,0.1
15,AGGGTCACGTGTCGAA,0.03
16,CGAGGCACGTGATATG,-0.07
17,TCGGTCACGTGTGTTA,0.12
18,TAGCGCACGTGTGGTC,-0.09
19,TTCTTCACGTGATTAG,0.37
20,GGTTGCACGTGGTGAA,0.03
21,GTTTTCACGTGTATTT,0.36
22,ACTAGCACGTGGAGGT,-0.08
23,TCAGCCACGTGGTGTG,-0.18

row,Sequence,relative binding free energy [kcal/mol]
1,AGTCTCACGTGGTTTT,0.19
2,AGTGTCACGTGGGGGA,-0.07
3,CGTGTCACGTGGGTAA,-0.02
4,GTCGTCACGTGATGTA,0.28
5,TATGTCACGTGGGCAT,0.03
6,GAAAGCACGTGGTTTG,-0.1
7,CGACGCACGTGGGGGG,-0.24
8,ATGGGCACGTGTTGGG,-0.06
9,GGGGCCACGTGTGTAA,-0.07
10,TTTACCACGTGGTGAG,-0.04
11,ATTGTCACGTGAAAGG,0.34
12,GAGTGCACGTGTGATG,0.11
13,TGGTCCACGTGTGAAT,0.12
14,AGTGGCACGTGTCCGG,-0.1
15,GGAGACACGTGCGGGT,0.11
16,TGTGACACGTGTGATG,0.07
17,TATGGCACGTGTCAGT,-0.07
18,AATGGCACGTGGGCCG,-0.26
19,GGTTTCACGTGAACGA,0.45
20,ACGGTCACGTGTAAGT,0.17
21,TTATGCACGTGTGTGC,-0.01
22,TTGTTCACGTGGTCGG,0.28
23,ATTTACACGTGGGGGT,0.01

row,Sequence,relative binding free energy [kcal/mol]
1,GTAAGCACGTGCGGAG,-0.09
2,GTGTGCACGTGAACTG,0.17
3,GGAGGCACGTGACCGG,-0.06
4,TTAGCCACGTGTGTAT,-0.17
5,AGGAGCACGTGGGGGA,-0.2
6,CGTAGCACGTGTAGTG,-0.13
7,AGAGGCACGTGTTCAG,-0.07
8,GGGCACACGTGATTGT,0.19
9,TAATGCACGTGAATGG,0.26
10,CGGCTCACGTGAAGGG,0.23
11,GGGTGCACGTGGTACA,-0.18
12,GAGTGCACGTGAGGGC,0.32
13,GCGTTCACGTGTGTTG,0.3
14,GAGATCACGTGGTTTG,0.13
15,TATCACACGTGAGTTG,0.28
16,ATTTGCACGTGGTGTC,-0.03
17,AAGGGCACGTGTGCCG,-0.13
18,GGGCTCACGTGGACGG,0.24
19,CGCGTCACGTGTTGGA,0.25
20,CACTGCACGTGGGGTG,-0.29
21,ATGAGCACGTGTTATG,-0.04
22,TTTGGCACGTGTGAAT,0.05
23,ACGGTCACGTGGAGTG,0.1
